Measured values from article PMC11320734 (ACS Pharmacology & Translational Science, 2024).
Read-outs that look alike come from different tables or passages of the source.

Tests used:
mouse CB2R (mCB2R) [1] = biological target: T1, mouse CB2R (mCB2R) (Mus musculus, UniProt P47936)
mouse CB2R (mCB2R) [2] = biological target: T1, mouse CB2R (mCB2R); assay: biochemical

T1 sequence (P47936 whole entry): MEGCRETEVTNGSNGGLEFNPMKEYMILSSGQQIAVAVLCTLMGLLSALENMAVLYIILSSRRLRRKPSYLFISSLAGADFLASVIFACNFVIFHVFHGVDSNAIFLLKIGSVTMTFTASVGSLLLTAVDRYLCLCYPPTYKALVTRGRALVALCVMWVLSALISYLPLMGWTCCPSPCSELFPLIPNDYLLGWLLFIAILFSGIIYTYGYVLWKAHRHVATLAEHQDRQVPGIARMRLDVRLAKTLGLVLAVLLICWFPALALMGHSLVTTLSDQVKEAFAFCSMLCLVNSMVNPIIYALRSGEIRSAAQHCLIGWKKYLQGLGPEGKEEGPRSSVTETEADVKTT

Compound	inhibition of [3H]-batrachotoxin binding (Na^+ ion channel site 2; 1 μM) [%]	inhibition of [3H]-batrachotoxin binding (Na^+ ion channel site 2; 10 μM) [%]	mCB2R/hCB2R Ki ratio (mouse CB2R (mCB2R) [1])	Ki (mouse CB2R (mCB2R) [2]) [nM]
Cn1c(C(C)(C)C)cc(=NC(=O)c2cc(C(F)(F)F)ccc2OCC(C)(C)O)n1CC1CCC1 [RNB-61]	32	96	2.3	
COCCOCCc1cc(NC(=O)C(C)(C)S(=O)(=O)C2CCOCC2)on1 [RNB-70]			14.8	266 ± 68.9
N#Cc1cc(NC(=O)CCc2nc(-c3ccc(F)cc3Cl)no2)cnc1CC(F)(F)F [RNB-73]			0.56	
CC(C)(Oc1ccc(C(F)(F)F)cn1)C(=O)Cc1cc(C(C)(C)C)no1 [RNB-90]			3.9	
